PubChem BioAssay AID1345083 (National Center for Advancing Translational Sciences (NCATS), 2018)
About 6,200 (6.6%) of roughly 94,000 compounds were called active. Inconclusive results, whose numbers are uncertain, are shown with a selection of clear calls. The call rests on the fitted dose curve; in most records, active means well fitted inhibition curve with a large enough effect; inconclusive means small, poorly fitted or top-dose-only effect; inactive means flat fitted curve, though single readings scatter. Potencies of inconclusive entries are doubtful fits and often do not repeat.

assay: Cytotoxic Profiling in HEK 293 Cell Line of Diverse Libraries Using Quantitative High-Throughput Screening; conditions: HEK 293 viability, ATP luminescence (CellTiter-Glo), 48-72 h; activity change, negative = cytotoxicity: at 115 µM (top of the series) unless noted; series mostly up to 115 µM; further: nearly all actives have a fitted effect of over 60% in size
In short: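 Luminescence from cellular ATP, measured with CellTiter-Glo, indicates HEK 293 viability. Cells plated at 250 cells/well are treated with compound for 48 or 72 hr at 37 degree Celsius before reagent addition.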
On the % scale 0 is the no-effect control and ±100 the full control effect; potency means the concentration at half of the fitted maximal effect; tags describe the fitted curve by direction and shape.

Row | SMILES | Potency | activity change, negative = cytotoxicity | outcome
1 | CNC(=O)c1cc(C)nc2onc(C3CCCN3C(=O)c3cccc(Cl)c3)c12 (stereo unspecified) | inconclusive: 89.1 µM [inhibitor, single point] | – | –
2 | Cc1nn(-c2ccccc2)c2c1C(C(C)C)N(C1CCN(C(=O)C3CCCC3)CC1)C2=O (stereo unspecified) | – | inactive: -26.9% | –
3 | COc1ccc(S(=O)(=O)N2CCCC(Cn3cnc4cccnc43)C2)cc1 (stereo unspecified) | inconclusive: 44.7 µM [inhibitor, partial curve] | – | –
4 | O=C(NCCc1ccc(Cl)cc1)c1ccc2nnc(-c3ccc(F)cc3)n2c1 | inconclusive: 39.8 µM [inhibitor, partial curve] | – | –
5 | CCOc1cccc(-c2nc(C(=O)NCc3ccc4c(c3)OCO4)cs2)c1 | inconclusive: 89.1 µM [inhibitor, single point] | – | –
6 | CN(C)C(=O)c1ccc(OC2CCN(C(=O)c3cccs3)CC2)nc1 | inconclusive: 100 µM [inhibitor, partial curve, poor fit] | – | –
7 | Cc1ncc2n1C(=O)N(C1CCN(Cc3ccc(OC(F)(F)F)cc3)CC1)C2 | active: 14.1 µM | – | –
8 | Cc1ccc(-c2noc([C@@H]3CCCN3C(=O)Cc3ccccc3)n2)cc1 | inconclusive: 79.4 µM [inhibitor, single point] | – | –
9 | Cc1ccc(C(=O)NC2CCN(C(=O)c3ccc(-c4cncnc4)cc3)CC2)cc1 | – | inactive: -16.4% | –
10 | C#CCNC(=O)c1cc(-c2ccsc2)c2nncn2n1 | – | inactive: -24% [at 172 µM] | –
11 | COc1ccc(-c2cc(N3CCN(C(=O)c4ccc(OC)c(F)c4)CC3)n[nH]2)cc1 | inconclusive: 50.1 µM [inhibitor, partial curve, poor fit] | – | –
12 | OCC1(Cc2ccccc2)CCCN(Cc2ccccc2-c2ccco2)C1 (stereo unspecified) | inconclusive: 79.4 µM [inhibitor, partial curve, poor fit] | – | –
13 | C#CCNC(=O)C1CCCN1Cc1ccc(-c2cc(C)cc(C)c2)cc1 (stereo unspecified) | active: 44.7 µM | – | –
14 | COc1ccc(Cl)cc1CN(C)c1cc(C2CC(N)C2)ncn1 (stereo unspecified) | inconclusive: 10 µM [inhibitor, full curve, poor fit] | – | –
15 | Cc1cccc(C)c1NC(=O)CN1C(=O)NC(c2ccc(Cl)cc2)C2=C1COC2=O (stereo unspecified) | inconclusive: 56.2 µM [inhibitor, single point] | – | –
16 | COc1ccc(-c2noc([C@@H]3Cc4nc[nH]c4CN3C(=O)c3cccs3)n2)cc1 | inconclusive: 79.4 µM [inhibitor, partial curve, poor fit] | – | –
17 | O=C(NC1CC1)[C@@H]1C[C@H](Oc2cccnc2)CN1C(=O)COc1ccccc1 | – | inactive: -13.6% | –
18 | CCOc1ccc(C(=O)N2CCCC(c3noc(COC)n3)C2)cc1 (stereo unspecified) | – | inactive: -5.23% | –
19 | COc1ccc(C(=O)N2CC[C@H](CO)[C@H](NC(=O)C3CC3)C2)cn1 | – | – | inactive
20 | COc1ccc(C(=O)N2CCCn3cc(-c4ccccc4)nc32)cn1 | inconclusive: 31.6 µM [inhibitor, full curve] | – | –
21 | COCCc1noc(CC2CCOC3(CCN(C(=O)c4ccc(OC)cc4)CC3)C2)n1 (stereo unspecified) | – | inactive: -4.21% | –
22 | COc1ccc(CN2CC3(CCN(C(=O)c4ccc(C)cc4C)CC3)C2=O)cc1 | inconclusive: 89.1 µM [inhibitor, single point] | – | –

Row | SMILES | Potency | activity change, negative = cytotoxicity | outcome
23 | Cc1ccc(C2=NC3(CCN(C(=O)c4cccc(Cl)c4)CC3)ON2)cc1 | inconclusive: 35.5 µM [inhibitor, partial curve, poor fit] | – | –
24 | O=C(NCc1ccccc1)N[C@H]1CO[C@H]2[C@@H]1OC[C@@H]2n1nnnc1Oc1ccc(-n2ccnc2)cc1 | – | inactive: -0.177% | –
25 | COc1ccc(CN2C=C(C(=O)OCc3noc(-c4ccc(C#N)cc4)n3)C(C)=NS2(=O)=O)cc1 | inconclusive: 22.4 µM [inhibitor, full curve, poor fit] | – | –
26 | CCC(CC)C(=O)NC[C@@H]1C=C(C)[C@H](Cc2nc3ccc(OC)cc3[nH]2)C[C@H]1C(C)C | active: 44.7 µM | – | –
27 | O=C(CCn1ccn2nc3c(c2c1=O)CCCC3)Nc1ccc(F)c(F)c1 | inconclusive: 39.8 µM [inhibitor, full curve, poor fit] | – | –
28 | CCOC(=O)C1(Cc2cccc(OC)c2)CCCN(C(=O)COc2ccccc2)C1 (stereo unspecified) | inconclusive: 89.1 µM [inhibitor, single point] | – | –
29 | CN1c2cc(C(=O)N3CCN(c4ccccc4)CC3)ccc2C(=O)N2CCCCCC21 (stereo unspecified) | inconclusive: 15.8 µM [inhibitor, full curve, poor fit] | – | –
30 | CCCNC(=O)N1CCN(Cc2c(C)noc2C)CC1 | inconclusive: 100 µM [inhibitor, partial curve, poor fit] | – | –
31 | CC(CCn1cccn1)NC(=O)c1ccc(OC2CCN(S(=O)(=O)N(C)C)CC2)cc1 (stereo unspecified) | inconclusive: 50.1 µM [inhibitor, partial curve, poor fit] | – | –
32 | O=C1CC2(CCN(Cc3ccccc3)CC2)Oc2cc(Cl)ccc21 | inconclusive: 56.2 µM [inhibitor, partial curve, poor fit] | – | –
33 | Cc1nn(C)c(C)c1CN(Cc1cnc(N2CCCCC2)nc1)C1CC1 | active: 25.1 µM | – | –
34 | O=C(c1ccc2nc(-c3cccnc3)oc2c1)N1CCCCC1 | – | – | inactive [at 172 µM]
35 | Cc1ccc(CC(=O)N2CCCN(c3cc(-c4ccc(C)c(C)c4)[nH]n3)CC2)cc1 | active: 31.6 µM | – | –
36 | O=C(CCC1CCCC1)N1CCCC(c2noc(COc3ccccc3F)n2)C1 (stereo unspecified) | inconclusive: 56.2 µM [inhibitor, partial curve, poor fit] | – | –
37 | N#Cc1ccc(CN2CCCC3(CNc4ccccc4[S+](=O)([O-])N3)C2)cc1 (stereo unspecified) | inconclusive: 50.1 µM [inhibitor, partial curve, poor fit] | – | –
38 | O=C(c1ccccn1)N1CCC(Cc2nncn2-c2ccccc2)CC1 | – | inactive: -7.75% | –
39 | O=C1CC2(CCN(C(=O)c3ccc(Cl)cc3)CC2)Oc2ccccc2N1 | inconclusive: 39.8 µM [inhibitor, partial curve, poor fit] | – | –
40 | CCc1ccc(C(=O)N2CCC3(CC2)C(=O)N(CC(=O)N(C)C)CN3c2ccccc2)cc1 | inconclusive: 100 µM [inhibitor, single point] | – | –
41 | Cc1nn2c(c1-c1ccccc1[S+](C)(=O)[O-])N(C(=O)c1cccc(Cl)c1)CCC2 | inconclusive: 112 µM [inhibitor, partial curve, poor fit] | – | –
42 | COCCCNc1ncccc1-c1cc(-c2ccccc2)nc2c(C)noc12 | active: 112 µM | – | –
43 | Cn1nc(C(=O)N2CCC3(CC2)N=C(c2cccc(Br)c2)NO3)c2ccccc21 | active: 44.7 µM | – | –
44 | Cc1ccc(-c2cc(C(=O)NCc3c(C)cc(C)[nH]c3=O)c3c(c2)N(C(C)C)CCO3)cc1 | inconclusive: 50.1 µM [inhibitor, partial curve, poor fit] | – | –

Row | SMILES | Potency | activity change, negative = cytotoxicity | outcome
45 | COCc1cc(=O)n(CC(=O)Nc2cc(OC)ccc2OC)c(N2CCOCC2)n1 | – | inactive: -6.94% | –
46 | CC(C)(C)OCC(O)CN1CCC(=O)N(Cc2ccccc2)Cc2sccc21 (stereo unspecified) | inconclusive: 56.2 µM [inhibitor, partial curve, poor fit] | – | –
47 | CCN1c2cc(C(=O)Nc3cccc4c3CCCC4)ccc2C(=O)N2CCCCCC21 (stereo unspecified) | inconclusive: 39.8 µM [inhibitor, partial curve] | – | –
48 | CC1(COCC2CC2)COc2ccc(C(=O)NCc3cccc(F)c3)cc2N1 (stereo unspecified) | inconclusive: 63.1 µM [inhibitor, full curve, poor fit] | – | –
49 | CN1CCN(C(=O)c2nc3sccn3c2-c2ccc(C(F)(F)F)cc2)CC1 | – | inactive: -13.7% | –
50 | COCCNc1nccc(C2(c3ccccc3Cl)CCNCC2)n1 | inconclusive: 63.1 µM [inhibitor, partial curve, poor fit] | – | –
51 | Cc1cnc(CCNS(=O)(=O)c2cccc(F)c2)n1Cc1ccc(F)cc1 | active: 39.8 µM | – | –
52 | Cc1ccc2nc([C@H]3CCN(Cc4ccc(C(F)(F)F)cc4)C3)[nH]c2c1 | active: 28.2 µM | – | –
53 | COCCn1cnc2ccc(OCc3ccc(Cl)cc3)nc2c1=O | inconclusive: 79.4 µM [inhibitor, partial curve] | – | –
54 | Cc1ccc(C(CC(=O)N2CCc3ccccc3C2)c2cn(C)c3ccccc23)cc1 (stereo unspecified) | inconclusive: 89.1 µM [inhibitor, single point] | – | –
55 | Cc1ccc(CNC(=O)C2CCCCc3nnc(-c4ccccc4)n32)o1 (stereo unspecified) | – | inactive: -3.46% | –
56 | COc1ccc(CCC(=O)N2CCCCCCNC(=O)[C@@H]3CCCC[C@@H]32)cc1 | inconclusive: 50.1 µM [inhibitor, partial curve, poor fit] | – | –
57 | COc1ccccc1-c1cc(C(=O)Nc2cccc(C(F)(F)F)c2)c2cnn(C)c2n1 | active: 14.1 µM | – | –
58 | Cn1c(C(=O)N2CCN(c3ccccn3)CC2)nc2nc(-c3ccccc3)c(Cl)cc21 | inconclusive: 100 µM [inhibitor, partial curve, poor fit] | – | –
59 | Cc1ccc(-c2ccccc2CN2CCN(C(=O)c3ccccc3Cl)CC2)cc1Cl | active: 39.8 µM | – | –
60 | O=C(Cc1cccs1)N1[C@@H](c2ccccc2)[C@@H](CO)C[C@]12CCCCNC2=O | inconclusive: 79.4 µM [inhibitor, partial curve, poor fit] | – | –
61 | Cc1ccsc1C(=O)C1CCCN(Cc2cc(F)ccc2-n2cccn2)C1 (stereo unspecified) | active: 39.8 µM | – | –
62 | Cc1cccc(NC(=O)C2CC(=O)N(c3n[nH]c4cc(Br)ccc34)C2)c1C (stereo unspecified) | – | inactive: 2.11% | –
63 | O=C(Nc1ccccc1)N1CCC(C(=O)N2CCC(c3ccccc3)CC2)CC1 | – | inactive: -40% | –
64 | O=C(C[C@@H]1C[C@H]2O[C@H](CNC3CCC3)[C@@H](O)[C@H]2O1)N1CCOCC1 | – | inactive: 0.285% [at 172 µM] | –
65 | CC[C@H]1CN(C(=O)Nc2cccc(C(F)(F)F)c2)CC[C@H]1CC(=O)N(CC)C(=O)NCCCN(C)C | inconclusive: 79.4 µM [inhibitor, single point] | – | –
66 | CN(Cc1cccn1C)C1CCCc2ccccc21 (stereo unspecified) | – | inactive: -15.6% [at 172 µM] | –
